Measured values from PubChem BioAssay AID624173 (National Center for Advancing Translational Sciences (NCATS), 2012).
Hit rate of the full screen: of about 410,000 compounds, about 490 (0.12%) were called active. The inconclusive results got no clear call from the source; some entries with a clear call stand among them for comparison. Calls come from the whole dose curve; as a rule, active = well fitted inhibition curve with a large enough effect; inconclusive = small, poorly fitted or top-dose-only effect; inactive = flat fitted curve, though single readings scatter. Potencies of inconclusive entries are doubtful fits and often do not repeat.

target: pyruvate kinase (Trypanosoma brucei) (UniProt Q57TT1); assay: qHTS of Trypanosoma Brucei Inhibitors; conditions: TbPYK enzyme, Kinase-Glo Plus ATP luminescence, 45 min; series mostly up to 76.8 µM; activity, negative = inhibition: at the top concentration; note: nearly all actives have a fitted effect of over 50% in size
Method in brief: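 T. brucei PYK with substrate was exposed to pin-transferred compounds across a concentration series, then started with 130 uM ADP (final). After 45 min at room temperature, Kinase-Glo Plus luminescence was read, normalized and curve-fitted.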
% is set by controls: 0 for no effect and ±100 for the full control effect; potency is the fitted concentration of half-maximal effect; tags give direction and shape of the fitted curve.

| Compound | activity, negative = inhibition | Potency |
| --- | --- | --- |
| Cc1cc(C)cc(-n2ccn(CC(=O)Nc3ccccc3F)c(=O)c2=O)c1 | inactive: 0.398% |  |
| CCOC(=O)c1ccc(NC(=S)NCc2ccco2)cc1 | inactive: 4.43% |  |
| CN(C)c1oc(-c2ccccc2[N+](=O)[O-])nc1C#N |  | inconclusive: 3.55 µM [inhibitor, full curve, poor fit] |
| O=C(Nc1ccccc1Cl)O/N=C/c1ccncc1 | inactive: 3.37% |  |
| O=C(Cc1ccccc1)NCc1n[nH]c(=S)n1-c1ccc(Br)cc1 |  | inconclusive: 7.94 µM [inhibitor, partial curve, poor fit] |
| Cc1ccc(S(=O)(=O)NNc2ccccc2)cc1 |  | inconclusive: 12.6 µM [inhibitor, partial curve] |
| CC(C)(C)c1ccc(C(=O)CC(Sc2ccc(Cl)cc2)C(=O)O)cc1 (configuration not stated) |  | inconclusive: 31.6 µM [inhibitor, partial curve, poor fit] |
| Nc1cc(C(=O)O)c(N)c2c1C(=O)c1ccccc1C2=O |  | inconclusive: 35.5 µM [inhibitor, partial curve, poor fit] |
| Cc1n[nH]c(=S)n(/N=C/c2cccc([N+](=O)[O-])c2)c1=O | inactive: -17% |  |
| Cc1ccc(NC(=O)c2ccc(COc3ccc4c(c3)CCC4)cc2)c(C)c1 | inactive: 0% |  |
| COc1cc(CCC(=O)OCC(=O)NCCc2ccc(S(N)(=O)=O)cc2)cc(OC)c1OC | inactive: -6.67% |  |
| CSC1=NSC2=NC(=O)/C(=C/c3coc4ccc(O)cc4c3=O)C(=N)N12 | inactive: -20.1% |  |
| CCOC(=O)C(C)Sc1nc2c(c(=O)[nH]c(=O)n2C)n1C/C=C(/C)Cl (configuration not stated) |  | inconclusive: 15.8 µM [inhibitor, partial curve] |
| Cc1ccc(CS(=O)(=O)c2cn(CC(=O)N3CCOCC3)c3ccccc23)cc1 |  | inconclusive: 35.5 µM [inhibitor, partial curve, poor fit] |
| CN1C(=O)NC(=O)/C(=C/c2ccc(C(=O)O)cc2)C1=O |  | inconclusive: 25.1 µM [inhibitor, partial curve] |
| COc1ccccc1-n1c(Cc2cccs2)n[nH]c1=S |  | inconclusive: 14.1 µM [inhibitor, partial curve] |
| COC(=O)c1cccc(-n2sc3ccccc3c2=O)c1 |  | active: 6.31 µM |
| CCOc1ccc2nc(CN3CCN(Cc4ccccc4OCC)C(CCO)C3)ccc2c1 (configuration not stated) | inactive: 4.37% |  |
| COc1ccccc1NC(=O)N(CCN1CCCC1)Cc1cc2cc(C)ccc2[nH]c1=O |  | inconclusive: 50.1 µM [inhibitor, single point] |
| O=S(=O)(c1cc(O)ccc1O)c1cccc2c(S(=O)(=O)c3cc(O)ccc3O)cccc12 |  | inconclusive: 28.2 µM [inhibitor, partial curve] |
| CCCCn1c(SCC(=O)NCc2ccco2)nc2cc(S(N)(=O)=O)ccc21 | inactive: -9.89% |  |
| COc1ccc(NC(=O)N2CCCc3ccccc32)cc1 | inactive: -3.75% |  |
| COc1ccc(C2N=C(c3ccccc3)C(C)(C)N2O)cc1OC (configuration not stated) |  | inconclusive: 50.1 µM [inhibitor, single point] |
| COc1ccc2noc3c2c1C(=O)c1ccccc1-3 |  | inconclusive: 31.6 µM [inhibitor, partial curve, poor fit] |

| Compound | activity, negative = inhibition | Potency |
| --- | --- | --- |
| O=C(Nc1ccc([N+](=O)[O-])cc1Cl)c1cc(Cl)ccc1O |  | inactive |
| O=S(=O)(c1cccc(C(F)(F)F)c1)N1CCC(Oc2ccc(-n3cnnn3)cc2)CC1 | inactive: 0.415% |  |
| O=C(NCC(=O)N(c1ccc2c(c1)OCO2)C(C(=O)NC1CCCC1)c1ccncc1)c1ccco1 (configuration not stated) |  | inconclusive: 31.6 µM [inhibitor, single point] |
| O=C(COC(=O)c1ccc(F)cc1Cl)NCc1ccco1 | inactive: -7.89% |  |
| CCC(=O)Nc1cccc(-c2ccc(N3CCN(C)CC3)nn2)c1 | inactive: -2.36% |  |
| O=C(/C=C1\C(=O)Nc2ccccc21)/C=C1\C(=O)Nc2ccccc21 |  | inconclusive: 25.1 µM [inhibitor, partial curve, poor fit] |
| Cc1nn(CCc2n[nH]c(=S)n2-c2cccc(Cl)c2)c(C)c1[N+](=O)[O-] |  | inconclusive: 8.91 µM [inhibitor, partial curve] |
| Cc1cc2c(cc(C(=O)OC(C(=O)NCC3CCCO3)C(C)C)n2C)o1 (configuration not stated) | inactive: -9.93% |  |
| O=c1c2ccccc2sc2ccc(Cl)cc12 | inactive: -2.83% |  |
| COc1cc(CNCCSc2nnnn2C)ccc1OCc1ccccc1C | inactive: -3.37% |  |
| CC(C)c1ccccc1-n1c(-c2cccnc2)n[nH]c1=S |  | inconclusive: 7.08 µM [inhibitor, partial curve, poor fit] |
| O=C(Nc1ccccc1)c1ccc(CSc2ccccn2)cc1 |  | inconclusive: 28.2 µM [inhibitor, single point] |
| C=CCn1c(-c2ccccc2OC)n[nH]c1=S |  | inconclusive: 12.6 µM [inhibitor, partial curve, poor fit] |
| O=c1c2c(-c3ccco3)csc2nc(SCc2cn3cccnc3n2)n1-c1ccccc1 |  | inconclusive: 35.5 µM [inhibitor, partial curve] |
| CCCCCCCCSC1=CC(=O)C(OC)=C(OC)C1=O |  | active: 14.1 µM |
| Cc1ccc(-n2c(-c3ccccc3)c[nH]c2=S)cc1 |  | inconclusive: 7.94 µM [inhibitor, full curve] |
| CCN(CC)c1ccc(-c2nnc(SCC(=O)Nc3ccccc3C#N)n2-c2ccccc2)cc1 |  | inconclusive: 7.94 µM [inhibitor, partial curve] |
| O=C1NC(=S)NC(=O)C1c1ccccc1 |  | inconclusive: 15.8 µM [inhibitor, partial curve] |
| Cc1cccc(N2C(=O)NC(=O)/C(=C\c3ccc(N4CCOCC4)cc3)C2=O)c1 |  | inconclusive: 35.5 µM [inhibitor, single point] |
| CCOc1ccccc1Nc1nc(-c2sc(NC(=O)c3ccco3)nc2C)cs1 | inactive: -1.21% |  |
| FC(F)(F)c1ccc(Cl)c(-n2c(-c3cc(-c4ccco4)[nH]n3)n[nH]c2=S)c1 |  | inconclusive: 2 µM [inhibitor, full curve, poor fit] |
| O=C(Nc1nnc(-c2ccco2)o1)c1ccc(Cl)cc1 | inactive: 1.57% |  |
| COc1cc(SC)ccc1C(=O)N1CCN(c2ccc(O)cc2)CC1 |  | inconclusive: 17.8 µM [inhibitor, partial curve] |
